# Experimental data: the supplement of paper PMC4604168 (melanoma cell lines)
# The list shows a part of the results. Repeats are few or missing, and single values can be far off.
# Tested on: A101D
# Assay: cell count relative to DMSO control; melanoma cells; higher = more viable cells
# Settings: library dose: standard library concentration; 72 h
# 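Also: cells treated in 1,536-well plates, then fixed and DAPI-stained, with nuclei counted from automated high-throughput microscope images.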
row,SMILES,cell count [%]
1,"CN(NC(=O)CC(=O)NN(C)C(=S)c1ccccc1)C(=S)c1ccccc1 + COc1ccc2c(c1)CCC1C2CCC2(C)C(NCCCCCCN3C(=O)C=CC3=O)CCC12 [U73122] (first compound 0.03 µM, partner dose 2 µM)",71.5
2,"COc1cc2c(Oc3ccc4[nH]c(C)cc4c3F)ncnc2cc1OCCCN1CCCC1 [cediranib] + Cn1cc(/C=C2\C(=O)Nc3cccnc32)c2ccccc21 [GW441756] (first compound 2 µM, partner dose 2 µM)",90.1
3,"COc1cc2c(Oc3ccc4[nH]c(C)cc4c3F)ncnc2cc1OCCCN1CCCC1 [cediranib] + COC(=O)c1sccc1S(=O)(=O)Nc1ccc(Nc2ccccc2)cc1OC [GSK0660] (first compound 2 µM, partner dose 5 µM)",112
4,"COc1cc2c(Oc3ccc4[nH]c(C)cc4c3F)ncnc2cc1OCCCN1CCCC1 [cediranib] + COc1ccc2c(c1)CCC1C2CCC2(C)C(NCCCCCCN3C(=O)C=CC3=O)CCC12 [U73122] (first compound 2 µM, partner dose 2 µM)",85.5
5,"CCc1ccc(CCOc2ccc(CC3SC(=O)NC3=O)cc2)nc1 (centres undefined) [pioglitazone] + O=c1cc(-c2cccc3c2Sc2ccccc2S3)oc(N2CCOCC2)c1 [KU55933] (first compound 10 µM, partner dose 5 µM)",88.2
6,"CN(NC(=O)CC(=O)NN(C)C(=S)c1ccccc1)C(=S)c1ccccc1 + O=C(O)C(=O)Nc1sc2c(c1C(=O)O)CCNC2 [TCS401] (first compound 0.03 µM, partner dose 8.33333 µM)",74.6
7,"CCc1ccc(CCOc2ccc(CC3SC(=O)NC3=O)cc2)nc1 (centres undefined) [pioglitazone] + COc1cc(N2CCC(N3CCN(C)CC3)CC2)ccc1Nc1ncc(Cl)c(Nc2ccccc2S(=O)(=O)C(C)C)n1 [NVP-TAE684] (first compound 10 µM, partner dose 0.4 µM)",94.6
8,"NC(=O)c1ccc(N(C(N)=O)c2c(F)cccc2F)nc1-c1ccc(F)cc1F + CCN(CC)CCCCNc1ncc2cc(-c3cc(OC)cc(OC)c3)c(NC(=O)NC(C)(C)C)nc2n1 [PD173074] (first compound 2 µM, partner dose 0.5 µM)",118
9,"CN(NC(=O)CC(=O)NN(C)C(=S)c1ccccc1)C(=S)c1ccccc1 + CCc1ccc(CCOc2ccc(CC3SC(=O)NC3=O)cc2)nc1 [pioglitazone] (first compound 0.03 µM, partner dose 10 µM)",60.4
10,"CC(C)(C)c1cnc(CSc2cnc(NC(=O)C3CCNCC3)s2)o1 + COc1cc(N2CCC(N3CCN(C)CC3)CC2)ccc1Nc1ncc(Cl)c(Nc2ccccc2S(=O)(=O)C(C)C)n1 [NVP-TAE684] (first compound 0.05 µM, partner dose 0.4 µM)",71.2
11,"Cc1ccc(NC(=O)c2cccc(N(C)C)c2)cc1NC(=O)c1ccc(O)cc1 + CCN(CC)CCCCNc1ncc2cc(-c3cc(OC)cc(OC)c3)c(NC(=O)NC(C)(C)C)nc2n1 [PD173074] (first compound 10 µM, partner dose 0.5 µM)",99.1
12,"CN(NC(=O)CC(=O)NN(C)C(=S)c1ccccc1)C(=S)c1ccccc1 + COc1ccc(COc2ccc(Cc3cnc(N)nc3N)cc2OC)cc1 [GW2580] (first compound 0.03 µM, partner dose 5 µM)",56.9
13,"Cc1ccc(NC(=O)c2cccc(N(C)C)c2)cc1NC(=O)c1ccc(O)cc1 + O=S(=O)(c1ccccc1)N(CC(F)(F)F)c1ccc(C(O)(C(F)(F)F)C(F)(F)F)cc1 [T0901317] (first compound 10 µM, partner dose 7 µM)",79.7
14,"NC(=O)c1ccc(N(C(N)=O)c2c(F)cccc2F)nc1-c1ccc(F)cc1F + COc1ccc(-c2ccc3c(N4CCOCC4)nc(N4C[C@@H](C)O[C@@H](C)C4)nc3n2)cc1CO [KU0063794] (first compound 2 µM, partner dose 0.1 µM)",104
15,"CCCCCCCCc1ccc(CCC(N)(CO)CO)cc1 [fingolimod] + CCN(CC)CCCCNc1ncc2cc(-c3cc(OC)cc(OC)c3)c(NC(=O)NC(C)(C)C)nc2n1 [PD173074] (first compound 10 µM, partner dose 0.5 µM)",7.44
16,"Cc1ccc(NC(=O)c2cccc(N(C)C)c2)cc1NC(=O)c1ccc(O)cc1 + CCCCCCCCCCCC1=C(O)C(=O)C=C(O)C1=O [Embelin] (first compound 10 µM, partner dose 6 µM)",80.6
17,"CCCCCCCCc1ccc(CCC(N)(CO)CO)cc1 [fingolimod] + O=C(O)C(=O)Nc1sc2c(c1C(=O)O)CCNC2 [TCS401] (first compound 10 µM, partner dose 8.33333 µM)",17.7

row,SMILES,cell count [%]
1,"CN(NC(=O)CC(=O)NN(C)C(=S)c1ccccc1)C(=S)c1ccccc1 + CC(C)CCN1c2nc(Nc3cc(F)c(O)c(F)c3)ncc2N(C)C(=O)C1C [BID1870] (first compound 0.03 µM, partner dose 1 µM)",51.4
2,"CCc1ccc(CCOc2ccc(CC3SC(=O)NC3=O)cc2)nc1 (centres undefined) [pioglitazone] + CC(C)CCN1c2nc(Nc3cc(F)c(O)c(F)c3)ncc2N(C)C(=O)C1C [BID1870] (first compound 10 µM, partner dose 1 µM)",56.8
3,"NC(=O)c1ccc(N(C(N)=O)c2c(F)cccc2F)nc1-c1ccc(F)cc1F + COC(=O)c1sccc1S(=O)(=O)Nc1ccc(Nc2ccccc2)cc1OC [GSK0660] (first compound 2 µM, partner dose 5 µM)",118
4,"CCCCCCCCc1ccc(CCC(N)(CO)CO)cc1 [fingolimod] + COC(=O)c1sccc1S(=O)(=O)Nc1ccc(Nc2ccccc2)cc1OC [GSK0660] (first compound 10 µM, partner dose 5 µM)",5.89
5,"CC(C)(C)c1cnc(CSc2cnc(NC(=O)C3CCNCC3)s2)o1 + O=C1NC(=O)/C(=C/c2ccc(-c3ccc(F)cc3O)o2)S1 [AS252424] (first compound 0.05 µM, partner dose 5 µM)",110
6,"CN(NC(=O)CC(=O)NN(C)C(=S)c1ccccc1)C(=S)c1ccccc1 + Cn1cc(/C=C2\C(=O)Nc3cccnc32)c2ccccc21 [GW441756] (first compound 0.03 µM, partner dose 2 µM)",80.6
7,"CC(C)(C)c1cnc(CSc2cnc(NC(=O)C3CCNCC3)s2)o1 + O=c1cc(-c2cccc3c2Sc2ccccc2S3)oc(N2CCOCC2)c1 [KU55933] (first compound 0.05 µM, partner dose 5 µM)",78.6
8,"COc1cc2c(Oc3ccc4[nH]c(C)cc4c3F)ncnc2cc1OCCCN1CCCC1 [cediranib] + CCc1ccc(CCOc2ccc(CC3SC(=O)NC3=O)cc2)nc1 [pioglitazone] (first compound 2 µM, partner dose 10 µM)",100
9,"CCCCCCCCc1ccc(CCC(N)(CO)CO)cc1 [fingolimod] + CCc1ccc(CCOc2ccc(CC3SC(=O)NC3=O)cc2)nc1 [pioglitazone] (first compound 10 µM, partner dose 10 µM)",3.96
10,"NC(=O)c1ccc(N(C(N)=O)c2c(F)cccc2F)nc1-c1ccc(F)cc1F + c1cc(-c2cnn3cc(-c4ccc(OCCN5CCCCC5)cc4)cnc23)ccn1 [Dorsomorphin] (first compound 2 µM, partner dose 2 µM)",104
11,"NC(=O)c1ccc(N(C(N)=O)c2c(F)cccc2F)nc1-c1ccc(F)cc1F + COc1cc(N2CCC(N3CCN(C)CC3)CC2)ccc1Nc1ncc(Cl)c(Nc2ccccc2S(=O)(=O)C(C)C)n1 [NVP-TAE684] (first compound 2 µM, partner dose 0.4 µM)",87.1
12,"CC(C)(C)c1cnc(CSc2cnc(NC(=O)C3CCNCC3)s2)o1 + CCN(CC)CCCCNc1ncc2cc(-c3cc(OC)cc(OC)c3)c(NC(=O)NC(C)(C)C)nc2n1 [PD173074] (first compound 0.05 µM, partner dose 0.5 µM)",74.3
13,"Cc1ccc(NC(=O)c2cccc(N(C)C)c2)cc1NC(=O)c1ccc(O)cc1 + O=C1NC(=O)/C(=C/c2ccc(-c3ccc(F)cc3O)o2)S1 [AS252424] (first compound 10 µM, partner dose 5 µM)",94.6
14,"Cc1ccc(NC(=O)c2cccc(N(C)C)c2)cc1NC(=O)c1ccc(O)cc1 + COc1ccc2c(c1)CCC1C2CCC2(C)C(NCCCCCCN3C(=O)C=CC3=O)CCC12 [U73122] (first compound 10 µM, partner dose 2 µM)",76.2
15,"COc1cc2c(Oc3ccc4[nH]c(C)cc4c3F)ncnc2cc1OCCCN1CCCC1 [cediranib] + O=C1NC(=O)/C(=C/c2ccc(-c3ccc(F)cc3O)o2)S1 [AS252424] (first compound 2 µM, partner dose 5 µM)",123
16,"Cc1ccc(NC(=O)c2cccc(N(C)C)c2)cc1NC(=O)c1ccc(O)cc1 + COc1cc(N2CCC(N3CCN(C)CC3)CC2)ccc1Nc1ncc(Cl)c(Nc2ccccc2S(=O)(=O)C(C)C)n1 [NVP-TAE684] (first compound 10 µM, partner dose 0.4 µM)",79.1
17,"CC(C)(C)c1cnc(CSc2cnc(NC(=O)C3CCNCC3)s2)o1 + Cc1cc([N+](=O)[O-])ccc1NS(=O)(=O)c1cc(Cl)ccc1Cl [FH535] (first compound 0.05 µM, partner dose 5 µM)",66
